Assay results reported in the supplement of paper PMC4967469.
By IC50 is meant the dose at which the fit gives 50% viability; a fit beyond the top or the lowest dose is shown as a bound at that dose. AUC is the area under the same curve over the 256-fold range up to the top dose, as a fraction; values near 1 show little effect. For some assays here: Any top dose called inferred was derived from the fitted curves, not read from the paper. For some assays here: Where an entry number is given, a second screen of the drug exists; the two often differ.

Legend:
Assay in all cases: Viability of human cancer cell lines after 72 h of drug (GDSC screen)
[1] = compound: CC1(C)CC(=O)c2c(C(F)(F)F)nn(-c3ccc(C(N)=O)c(N[C@H]4CC[C@H](O)CC4)c3)c2C1 [SNX-2112]; conditions: top dose 2.56 µM
Experimental: (§1)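 Human cancer cell lines in 384-well plates, medium with 10% serum, drug for 72 h over a 256-fold dose range (nine 2-fold or five 4-fold steps up to the top dose). Adherent lines were fixed and stained with the nucleic acid dye Syto60, suspension lines read with resazurin; signal relative to control wells, capped at 0 and 100%. One two-parameter sigmoid per drug and line, fitted in a mixed model over all curves with the slope shared within a line.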

[2] = compound: CC[C@]1(O)C[C@@H]2CN(CCc3c([nH]c4ccccc34)[C@@](C(=O)OC)(c3cc4c(cc3OC)N(C)[C@H]3[C@@](O)(C(=O)OC)[C@H](OC(C)=O)[C@]5(CC)C=CCN6CC[C@]43[C@@H]65)C2)C1 [Vinblastine]; conditions: top dose 0.1 µM; top dose inferred
Experimental: as §1

[3] = compound: CN(C)C/C=C/C(=O)Nc1cc2c(Nc3ccc(F)c(Cl)c3)ncnc2cc1O[C@H]1CCOC1 [Afatinib]
Experimental: as §1

[4] = compound: CN(c1ncccc1CNc1nc(Nc2ccc3c(c2)CC(=O)N3)ncc1C(F)(F)F)S(C)(=O)=O [PF-562271]; conditions: top dose 2.56 µM; top dose inferred
Experimental: as §1

[5] = compound: O=C(NC1CC1)c1cccc(-c2ccc3c(NC(=O)C4CC4)n[nH]c3c2)c1 [XMD13-2]; conditions: top dose 10.24 µM; top dose inferred
Experimental: as §1

[6] = top dose 0.5 µM, screen: GDSC drug entry 1032
[7] = top dose 10 µM, screen: GDSC drug entry 1377, top dose inferred

Cell Line | AUC [1] | IC50 [1] [nM] | AUC [2] | IC50 [2] [nM] | AUC [3, 6] | IC50 [3, 6] [nM] | AUC [3, 7] | IC50 [3, 7] [nM] | AUC [4] | IC50 [4] [nM] | AUC [5] | IC50 [5] [nM]
NCI-SNU-16 (stomach, suspension) | 0.973 | > 2560 | 0.634 | 13.9 | 0.991 | > 500 | 0.986 | > 10000 | 0.991 | > 2560 | 0.979 | > 10200
NEC8 (testis, adherent) | 0.315 | 53.2 | 0.441 | 4.42 | 0.979 | > 500 | – | – | 0.924 | > 2560 | 0.963 | > 10200
NH-12 (neuroblastoma, adherent) | 0.43 | 100 | 0.7 | 24.6 | 0.958 | > 500 | – | – | 0.904 | > 2560 | 0.733 | 3240
NKM-1 (acute myeloid leukaemia, suspension) | 0.085 | < 10 | 0.279 | 1.44 | 0.961 | > 500 | 0.914 | > 10000 | 0.808 | 1370 | 0.83 | 6700
NMC-G1 (glioma, adherent) | 0.738 | 912 | 0.544 | – | 0.956 | > 500 | 0.97 | > 10000 | 0.905 | > 2560 | 0.879 | > 10200
NOMO-1 (acute myeloid leukaemia, suspension) | 0.283 | 35.4 | 0.289 | 1.45 | 0.93 | > 500 | 0.809 | 6100 | 0.904 | > 2560 | 0.889 | > 10200
NOS-1 (osteosarcoma, adherent) | 0.514 | 176 | 0.777 | 49.9 | 0.941 | > 500 | – | – | 0.94 | > 2560 | 0.862 | > 10200
NTERA-2 cl.D1 (testis, adherent) | 0.797 | 1190 | 0.468 | 5.13 | 0.952 | > 500 | 0.896 | > 10000 | 0.807 | 1300 | 0.96 | > 10200
NU-DUL-1 (B-cell lymphoma, suspension) | 0.292 | 47.5 | 0.343 | 2.52 | 0.992 | > 500 | 0.992 | > 10000 | 0.948 | > 2560 | 0.793 | 3690
NUGC-4 (stomach, adherent) | 0.703 | 598 | 0.69 | 21.3 | 0.872 | 477 | 0.194 | 76.8 | 0.962 | > 2560 | 0.982 | > 10200
NY (osteosarcoma, adherent) | 0.948 | > 2560 | 0.497 | 6.12 | 0.978 | > 500 | 0.89 | > 10000 | 0.949 | > 2560 | 0.974 | > 10200
OAW-42 (ovary, adherent) | 0.895 | > 2560 | 0.934 | > 100 | 0.945 | > 500 | 0.932 | > 10000 | 0.971 | > 2560 | 0.976 | > 10200
OCI-AML2 (acute myeloid leukaemia, suspension) | 0.089 | 12.9 | 0.68 | 17.2 | 0.995 | > 500 | 0.99 | > 10000 | 0.957 | > 2560 | 0.963 | > 10200
OCI-AML3 (acute myeloid leukaemia, suspension) | 0.369 | 73.8 | 0.555 | 8.62 | 0.979 | > 500 | 0.977 | > 10000 | 0.989 | > 2560 | 0.863 | 6870
OCI-AML5 (acute myeloid leukaemia, suspension) | 0.307 | 48.5 | 0.532 | 7.59 | 0.985 | > 500 | 0.974 | > 10000 | 0.865 | 1940 | 0.874 | 8460
OCI-LY-19 (B-cell lymphoma, suspension) | 0.198 | 22.3 | 0.461 | 4.92 | 0.988 | > 500 | 0.947 | > 10000 | 0.908 | > 2560 | 0.707 | 2320
OCI-M1 (acute myeloid leukaemia, suspension) | 0.346 | 67 | 0.695 | 18.9 | 0.994 | > 500 | 0.995 | > 10000 | 0.993 | > 2560 | 0.921 | 9210
OCUB-M (breast, adherent) | 0.295 | 46.5 | 0.707 | 21.8 | 0.954 | > 500 | 0.552 | 851 | 0.928 | > 2560 | 0.7 | 2130
OCUM-1 (stomach, adherent) | 0.957 | > 2560 | 0.741 | 33.3 | 0.986 | > 500 | 0.985 | > 10000 | 0.947 | > 2560 | 0.976 | > 10200
OE19 (oesophagus, adherent) | 0.771 | 1110 | 0.719 | 28.6 | 0.596 | 59.6 | 0.251 | 108 | 0.909 | > 2560 | 0.986 | > 10200
OE33 (oesophagus, adherent) | 0.894 | > 2560 | 0.68 | 22 | 0.969 | > 500 | 0.891 | > 10000 | 0.892 | > 2560 | 0.951 | > 10200
OMC-1 (cervix, adherent) | 0.474 | 135 | 0.857 | 87.8 | 0.944 | > 500 | 0.948 | > 10000 | 0.988 | > 2560 | 0.969 | > 10200
